Measured values from PubChem BioAssay AID652104 (National Center for Advancing Translational Sciences (NCATS), 2013).
Screen size: about 410,000 compounds; about 7,200 (1.8%) were called active. Inconclusive means that the source gave no clear call. Such entries were picked first, then a sample of the others. The call rests on the fitted dose curve; in most records, active means well fitted activation curve with a large enough effect; inconclusive means small, poorly fitted or top-dose-only effect, or another doubt; inactive means no such curve, though single readings can be large or run the other way. No potency is given beside an inconclusive call; the fits are too rough.

Assay: qHTS of TDP-43 Inhibitors; further: nearly all actives have a fitted effect of over 50% in size; on growth rescue (activation): % of control where 0% means no effect
Conditions: TDP-43 expressing yeast growth rescue, BacTiter-Glo, 24 h; growth rescue (activation): at 46.1 µM (top of the series) unless noted
How it was run: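 Readout is BacTiter-Glo luminescence of cell growth, so inhibitors register as activators. TDP-43-expressing yeast at OD600=0.02 in galactose medium, after raffinose pregrowth to mid-log, were incubated with compound for 24 hr at 30 deg C.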
Potency means the concentration at half of the fitted maximal effect; tags describe the fitted curve by direction and shape.

SMILES	Potency	growth rescue (activation)
NNc1nc(-c2ccccc2)c2ccccc2n1	inactive	
O=C1NC(=O)/C(=C/c2cc3c(cc2Br)OCO3)S1	inactive	
COc1ccc(CNC(=O)COC(=O)CCC2CCCCC2)cc1	inconclusive [activator, single point]	
O=C(Nc1nc2n(n1)C(c1ccccc1)C=C(c1ccc(Cl)cc1)N2)c1ccco1 (configuration not stated)	inconclusive [activator, partial curve]	
Fc1ccc(N=C2NN=C(c3cc(F)ccc3F)CS2)cc1	inconclusive [activator, full curve]	
CCCCCCCCC/C(=N\O)c1ccccn1		inconclusive: -87.6% [activator]
COc1cccc(C(C)(O)c2nc(-c3cccc(C#N)c3)cs2)c1 (configuration not stated)	inconclusive [activator, single point]	
O=C(NCCc1ccccc1)C1Cc2c(-c3ccc4c(c3)OCO4)ccnc2O1 (configuration not stated)	inconclusive [activator, partial curve]	
COc1ccc(-c2cn3c(C)c(C(=O)N4CCc5ccccc5C4)sc3n2)cc1	inconclusive [activator, full curve, poor fit]	
COc1ccc(N2Cc3cccc(C(=O)Nc4ccc(Cl)cc4)c3C2=O)cc1	inactive	
O=C(c1ccc(F)cc1)N1CCOC(c2nc(-c3ccc(F)cc3)no2)C1 (configuration not stated)	inconclusive [activator, partial curve]	
CCc1cnc2c(c1SCC(=O)Nc1ccc(C(=O)OC)cc1)c(=O)n(C)c(=O)n2C	inactive	
COc1ccc(CCN2C(=O)CC(N3CCC(C(N)=O)CC3)C2=O)cc1OC (configuration not stated)	inconclusive [activator, single point]	
CCOC(=O)C1CCCN(C(=O)c2ccc3nc(-c4ccc(OC)c(OC)c4)c(-c4ccc(OC)c(OC)c4)nc3c2)C1 (configuration not stated)	inactive	
CN1C(=O)Nc2cccc3cccc1c23	inconclusive [activator, partial curve]	
O=C(CSc1nncs1)NCc1ccc2c(c1)OCO2	active: 12.6 µM	
O=C(NC(=S)Nc1cccc2c(O)cccc12)c1ccco1	inconclusive [activator, single point]	
COc1ccc(C(=O)Nc2cccnc2Sc2ccc(Cl)cc2)cc1	inconclusive [activator, single point]	
Cc1cc(-c2ccc(/C=N/n3cnnc3)o2)ccc1Cl	inconclusive [activator, partial curve]	
Cc1cc(C)c(S(=O)(=O)NCC(c2ccco2)S(=O)(=O)c2cccs2)c(C)c1 (configuration not stated)	inconclusive [activator, partial curve]	
Cc1cc(Br)cc2c1N(Cc1ccccc1OC(C)C)C(=O)C2=O		inconclusive: -93% [activator]
CC1CCC(n2c(=S)[nH]c3ccccc3c2=O)CC1 (configuration not stated)	inconclusive [activator, full curve]	
O=C(CCSc1nnc(-c2ccco2)o1)Nc1ccc(Cl)cc1	inconclusive [activator, single point]	
COc1ccc(Nc2nc(-c3ccccc3)c3ccccc3n2)cc1	inactive	

SMILES	Potency	growth rescue (activation)
CCOC(=O)c1ccccc1NC(=O)c1cnc(N2CCOCC2)c2ccccc12	inconclusive [activator, partial curve]	
CCOC(=O)C1=CCN(S(=O)(=O)c2ccccc2C)C1c1cccc(Cl)c1 (configuration not stated)	inconclusive [activator, partial curve]	
CCOC(=O)c1ccccc1NC(=O)CN(c1cccc(OC)c1)S(C)(=O)=O	inconclusive [activator, partial curve, poor fit]	
COc1ccc(C=NNC(=S)NC23CC4CC(CC(C4)C2)C3)cc1OC	inconclusive [activator, single point]	
Cc1ccc([C@@H]2C[C@H]3[C@@H](CN2S(=O)(=O)c2ccc(C)cc2)C(=O)C[C@@H](c2ccc(C)cc2)N3S(=O)(=O)c2ccc(Cl)cc2)cc1	inconclusive [activator, partial curve]	
O=C(CS(=O)(=O)c1ccc(F)cc1)N1CCN(c2ccccc2)CC1	inconclusive [activator, single point]	
Cc1cc2c(c(=O)n1CCc1ccccc1)C(c1ccco1)C(C#N)=C(N)O2 (configuration not stated)	inactive	
O=C(c1ccccc1)C1CCN(C(=O)c2c(F)cccc2F)CC1	active: 11.2 µM	
O=C(COc1ccccc1[N+](=O)[O-])Nc1cccnc1	inconclusive [activator, partial curve]	
O=C(Nc1ccc(F)c(Cl)c1)c1ccccc1NC(=O)C1CCCCC1C(=O)O (configuration not stated)	inconclusive [activator, partial curve]	
CSc1cc(C)n(-c2ccccc2C)c(=S)c1C(C)=O	inconclusive [activator, full curve]	
O=C(c1ccccc1Oc1ccccc1)N1CCN(c2ccccc2F)CC1	inconclusive [activator, single point]	
COCCNC(=O)c1cc(-c2cccs2)on1	inactive	
CCN(CC)C(=S)NC(=O)c1ccc(OC)c(Br)c1	inconclusive [activator, single point]	
O=S(=O)(NCc1ccccc1)NCc1ccccc1F		inactive: -17.3% [at 0.397 µM]
COCc1ccc(O)c2ncccc12		inconclusive: -64.1% [activator]
O=C(NCCc1csc(-c2ccc(F)cc2)n1)c1cccc(F)c1	active: 15.8 µM	
COc1ccc(/C=N\NC(=O)c2ccccc2Br)cc1COc1ccccc1	inconclusive [activator, single point]	
Cc1cc(/C=N/n2cnnc2)c(C)n1-c1ccc(OCc2ccccc2F)cc1	inconclusive [activator, single point]	
COc1cc(Cl)c(C)cc1Nc1nc2ccccc2n2cnnc12	inactive	
CC1=C(C(=O)N(C(C)C)C(C)C)CC(CC(=O)NCCc2ccccn2)C(=O)N1Cc1ccc(C(C)(C)C)cc1 (configuration not stated)	inactive	
Cc1ccc(C(=O)CSc2nnc(-c3ccco3)n2Cc2ccccc2)cc1	inactive	
CCC1(c2ccc(F)cc2)NC(=O)N(CC(=O)N(CCC#N)c2ccccc2)C1=O (configuration not stated)	inactive	
COc1ccc(OC)c2c1C(=O)c1ccccc1C2=O	active: 25.1 µM	

SMILES	Potency	growth rescue (activation)
O=C(NCC1CC1)c1cc2c(c(-c3cccc(-c4ccccc4F)c3)n1)[C@H](CCO)N(C(=O)CC1CC1)C2	inconclusive [activator, single point]	
CCOc1ccc(N2CC(NS(=O)(=O)c3cccs3)CC2=O)cc1 (configuration not stated)	inactive	
Cc1ccc(/C=C/C(=O)O)cc1S(=O)(=O)N1CCc2ccccc21	active: 7.94 µM	
COc1ccc(Br)c(C(=O)OCC(=O)NC(=O)NC2CCCC2)c1	active: 17.8 µM	
S=C1NC2(CCCCC2)N=C1c1ccccc1	inconclusive [activator, single point]	
CN1CCCN(C2C3CC4CC(C3)CC2C4)CC1 (configuration not stated)	inactive	
Cc1ccc(-c2ccc(CCC(=O)O)n2-c2cccc(C)c2C)cc1	inactive	
Cc1cc(C)c2c(CC(=O)NN(C)C)coc2c1	inactive	
Cc1ccc(C(=O)N2CCCN(c3nc4cc5c(cc4cc3C#N)OCO5)CC2)cc1	inconclusive [activator, single point]	
CCCCC1(COC(=O)CCC(=O)O)C(=O)N(c2ccccc2)N(c2ccccc2)C1=O	inconclusive [activator, partial curve]	
CCSc1ccc2nnc(-c3cccs3)n2n1	inconclusive [activator, single point]	
CCOc1ccccc1N1CCN(C(=O)Nc2cccc(Cl)c2)CC1	inconclusive [activator, full curve, poor fit]	
CCOC(=O)/C(C#N)=C1/SC(C)C(=O)N1c1ccc(Br)cc1 (configuration not stated)	inactive	
C=CCn1cnc2c(nnn2-c2cc(C)cc(C)c2)c1=O	active: 11.2 µM	
COc1ccc(-c2ccc(-c3noc(-c4cccc(OC)c4)n3)c(OC)n2)cc1	inactive	
CCOc1ccccc1C(=O)NC(C(=O)OCC(=O)Nc1nnc(-c2ccccc2)o1)C(C)C (configuration not stated)	inconclusive [activator, single point]	
COc1ccc(CCNC(=O)c2cc(=O)[nH]c3ccc(S(=O)(=O)N4CCCCC4C)cc23)cc1OC (configuration not stated)	inactive	
CCOc1cccc(C(=O)NC(=S)Nc2cccnc2)c1	inconclusive [activator, partial curve]	
CC1(C(=O)NS(=O)(=O)Cc2cccc(Cl)c2)CCN1C(=O)C1(c2ccc(Cl)cc2)CC1 (configuration not stated)	inconclusive [activator, single point]	
Cc1ccc(NC(=O)c2ccc(Nc3c([N+](=O)[O-])cc([N+](=O)[O-])cc3[N+](=O)[O-])cc2)cc1	inconclusive [activator, partial curve]	
CC(=O)NC(c1ccccc1)c1nc(-c2ccc(C)c(C)c2)cs1 (configuration not stated)	active: 20 µM	
Cc1cc(NC(=S)N(Cc2ccc(Cl)cc2)Cc2ccc(C(=O)O)cc2)ccc1Cl	inconclusive [activator, partial curve]	
O=C(c1ccc(Cl)c(Cl)c1)c1cc(-c2ccccn2)c(N2CCOCC2)s1	inconclusive [activator, single point]	
COc1ccc(-c2nc3ccc(Cl)cn3c2Nc2ccc(C)cc2)cc1	inconclusive [activator, partial curve]	
